Laboratory results taken from the supplement of paper PMC7826260.
Some of the results follow. The data describe in vitro nicking of single-stranded DNA by Rep domains (3 µM enzyme, 1 h, 37 °C); shown is the middle of each 90-letter strand. The score is log2 (uncut reads / reads without enzyme); the lower, the more was cut; hits are not called. Counts are relative to all reads, so uncut sequences can rise above 0 when many others are cut.

What follows are sequences tested on T1, Rep nickase domain of maize striate mosaic virus (assay: uncleaved DNA left, log2 of reads against the no-enzyme library (log2 ratio); higher = less cleavage (more negative = more Rep cleavage of the k-mer); sequences stand for … in CTCGTCCG…ACCGGAGA).
T1 sequence (protein, residues 1-117, tag omitted): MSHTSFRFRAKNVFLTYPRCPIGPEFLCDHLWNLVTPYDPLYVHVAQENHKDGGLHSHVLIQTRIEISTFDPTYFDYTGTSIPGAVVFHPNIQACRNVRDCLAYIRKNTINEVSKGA
Experimental: (§1)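 A pool of 90-nt single-stranded DNAs with seven random bases just before the constant AC of the nick site (name = the seven bases) was cut by 3 µM recombinant His6-SUMO-tagged Rep nickase domain (300 nM DNA, 50 mM HEPES pH 8.0, 50 mM NaCl, 1 mM MnCl2, 1 h, 37 °C, three replicates). Uncut DNA was amplified and sequenced.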

Sequence	uncleaved DNA left (log2)
TGTGTCG	-0.886
TCGAGGG	0.172
CCAGACG	-0.981
GAAGTAT	1.38
CCTCCCC	-0.247
CCTCGAT	1.28
ACTGATC	0.805
TATTAAC	-0.504
GGAGGAT	1.98
GCCTTCT	-0.0177
CTTATTT	-0.764
TTTAACG	-1.28
TTGGGGG	-0.0911
GCTCGTA	0.229
TACTTTG	-1.02
ACGTCAT	-0.307
AACCTCG	-1.18
ACAACAC	-0.65
GGCAGGC	1.39
CTACGGC	-0.551

Sequence	uncleaved DNA left (log2)
AACCCCC	0.129
GTATACA	1.66
TTTAATT	-0.448
TTGCTGT	-0.668
CCTTGTG	-0.656
GGCAAAC	1.71
AAAGAAG	-1.06
TGGATGT	1.74
TCTGCCT	-0.416
ACCATGA	-0.994
GAGAGCA	0.285
ATCATCC	-0.45
TGTTATT	0.433
TATGCCG	-0.929
AGGGCTG	1.83
AGGTCAG	0.698
GGGAACG	1.96
CATTAGA	-1.31
GCTGCTA	0.0599
GGGCAGA	2.23

The sequences below were run on T2, Rep nickase domain of porcine circovirus 2 in the same assay as above.
T2 sequence (protein, residues 2-116, tag omitted): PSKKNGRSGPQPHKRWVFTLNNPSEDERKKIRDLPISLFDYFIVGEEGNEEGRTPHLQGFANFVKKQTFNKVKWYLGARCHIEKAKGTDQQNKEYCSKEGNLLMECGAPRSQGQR
Experimental: as §1

Sequence	uncleaved DNA left (log2)
TGTGTCG	-0.000412
TCGAGGG	0.104
CCAGACG	0.205
GAAGTAT	0.056
CCTCCCC	-0.576
CCTCGAT	0.0414
ACTGATC	0.228
TATTAAC	-0.186
GGAGGAT	0.125
GCCTTCT	-1.76
CTTATTT	-0.799
TTTAACG	0.144
TTGGGGG	0.107
GCTCGTA	0.137
TACTTTG	-0.208
ACGTCAT	-0.54
AACCTCG	-0.19
ACAACAC	0.215
GGCAGGC	0.128
CTACGGC	-0.0888

Sequence	uncleaved DNA left (log2)
AACCCCC	-0.659
GTATACA	0.0987
TTTAATT	-2.9
TTGCTGT	0.0437
CCTTGTG	0.0539
GGCAAAC	0.139
AAAGAAG	0.429
TGGATGT	0.169
TCTGCCT	-0.18
ACCATGA	0.26
GAGAGCA	-1.84
ATCATCC	0.0823
TGTTATT	-3.75
TATGCCG	-0.0262
AGGGCTG	0.225
AGGTCAG	0.219
GGGAACG	0.206
CATTAGA	-0.00367
GCTGCTA	-0.108
GGGCAGA	0.152

What follows are sequences tested on T3, Rep nickase domain of tomato golden mosaic virus in the same assay as above.
T3 sequence (protein, residues 1-124, tag omitted): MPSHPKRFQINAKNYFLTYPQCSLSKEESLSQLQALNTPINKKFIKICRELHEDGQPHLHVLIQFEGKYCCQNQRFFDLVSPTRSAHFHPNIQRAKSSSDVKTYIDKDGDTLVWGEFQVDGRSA
Experimental: as §1

Sequence	uncleaved DNA left (log2)
TGTGTCG	-0.0862
TCGAGGG	0.0875
CCAGACG	0.0398
GAAGTAT	0.096
CCTCCCC	-0.0605
CCTCGAT	-0.0134
ACTGATC	0.0616
TATTAAC	-0.0181
GGAGGAT	-0.0364
GCCTTCT	-0.0318
CTTATTT	-0.052
TTTAACG	0.0209
TTGGGGG	-0.0433
GCTCGTA	0.135
TACTTTG	-0.107
ACGTCAT	0.0609
AACCTCG	0.0939
ACAACAC	-0.0268
GGCAGGC	-0.0749
CTACGGC	0.0651

Sequence	uncleaved DNA left (log2)
AACCCCC	-0.0965
GTATACA	0.157
TTTAATT	-0.0619
TTGCTGT	-0.135
CCTTGTG	0.0648
GGCAAAC	0.0522
AAAGAAG	0.0997
TGGATGT	-0.0201
TCTGCCT	-0.0508
ACCATGA	0.203
GAGAGCA	0.0556
ATCATCC	0.0982
TGTTATT	-0.336
TATGCCG	-0.231
AGGGCTG	0.13
AGGTCAG	0.13
GGGAACG	0.0343
CATTAGA	-0.0574
GCTGCTA	-0.133
GGGCAGA	-0.0223

What follows are sequences tested on T4, Rep nickase domain of tomato yellow leaf curl virus in the same assay as above.
T4 sequence (protein, residues 1-136, tag omitted): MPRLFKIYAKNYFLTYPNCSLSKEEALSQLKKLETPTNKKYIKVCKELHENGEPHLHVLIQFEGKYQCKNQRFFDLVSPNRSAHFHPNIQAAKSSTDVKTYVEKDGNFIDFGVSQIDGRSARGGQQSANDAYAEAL
Experimental: as §1

Sequence	uncleaved DNA left (log2)
TGTGTCG	0.0255
TCGAGGG	-0.139
CCAGACG	-0.0507
GAAGTAT	0.0201
CCTCCCC	-0.141
CCTCGAT	-0.262
ACTGATC	-0.0962
TATTAAC	0.0563
GGAGGAT	0.0195
GCCTTCT	0.0499
CTTATTT	-0.13
TTTAACG	0.0498
TTGGGGG	-0.12
GCTCGTA	0.0203
TACTTTG	0.0236
ACGTCAT	0.0185
AACCTCG	0.00722
ACAACAC	-0.054
GGCAGGC	0.0384
CTACGGC	-0.069

Sequence	uncleaved DNA left (log2)
AACCCCC	0.0645
GTATACA	0.123
TTTAATT	-0.0825
TTGCTGT	-0.0512
CCTTGTG	0.0229
GGCAAAC	0.0553
AAAGAAG	0.0749
TGGATGT	0.119
TCTGCCT	-0.225
ACCATGA	0.147
GAGAGCA	0.178
ATCATCC	0.0439
TGTTATT	0.0756
TATGCCG	-0.0406
AGGGCTG	-0.191
AGGTCAG	0.169
GGGAACG	0.0237
CATTAGA	-0.0352
GCTGCTA	-0.0804
GGGCAGA	-0.105

What follows are sequences tested on T5, Rep nickase domain of wheat dwarf virus in the same assay as above.
T5 sequence (protein, residues 1-137, tag omitted): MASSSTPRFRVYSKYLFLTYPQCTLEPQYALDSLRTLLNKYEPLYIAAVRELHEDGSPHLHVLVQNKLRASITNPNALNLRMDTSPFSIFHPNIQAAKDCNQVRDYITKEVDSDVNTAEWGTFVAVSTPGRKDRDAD
Experimental: as §1

Sequence	uncleaved DNA left (log2)
TGTGTCG	-0.204
TCGAGGG	-0.0109
CCAGACG	0.101
GAAGTAT	0.174
CCTCCCC	-0.213
CCTCGAT	-0.177
ACTGATC	-0.0483
TATTAAC	0.0245
GGAGGAT	-0.00779
GCCTTCT	-0.0162
CTTATTT	-0.019
TTTAACG	-0.119
TTGGGGG	-0.0135
GCTCGTA	0.152
TACTTTG	-0.051
ACGTCAT	0.0872
AACCTCG	-0.0249
ACAACAC	0.0373
GGCAGGC	0.0675
CTACGGC	-0.0607

Sequence	uncleaved DNA left (log2)
AACCCCC	0.0218
GTATACA	0.0962
TTTAATT	-0.168
TTGCTGT	-0.091
CCTTGTG	-0.141
GGCAAAC	0.0481
AAAGAAG	0.087
TGGATGT	0.113
TCTGCCT	-0.121
ACCATGA	-0.0319
GAGAGCA	0.147
ATCATCC	0.0906
TGTTATT	-1.26
TATGCCG	-0.125
AGGGCTG	-0.0787
AGGTCAG	0.087
GGGAACG	0.127
CATTAGA	-0.0957
GCTGCTA	0.0114
GGGCAGA	0.119
